Measurements taken from PubChem BioAssay AID1346428 (National Center for Advancing Translational Sciences (NCATS), 2018).
The whole screen tested about 48,000 compounds, of which about 1,200 (2.5%) were called active. Another 2% or so got no clear call; they are omitted.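 The calls were made as follows: active = activation of at least 60% and not above a set upper limit (about 1 call in 100 departs from these limits); inconclusive = activation of 40% to 60%, or above that upper limit; inactive = activation under 40%.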 The list shows a part of the results.

These compounds were tested against Probable G-protein coupled receptor 32 (Homo sapiens) (UniProt O75388) (assay: qHTS for Agonists of Human Resolvin D1 Receptor DRV1). Conditions: CHO-K1 GPR32 beta-arrestin PathHunter luminescence, 90 min; at 76.9 µM; stronger effect = higher value; zero percent set by DMSO-only wells.
Method in brief: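 Agonism was scored as beta-arrestin recruitment to ProLink-fused GPR32 in stably transfected CHO-K1 cells, giving a chemiluminescent beta-Gal signal; compounds were incubated 90 min at 37 °C.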
Also: 0% is about no effect.

UniProt O75388, sequence (O75388 whole entry, looked up, the tested form may be a part): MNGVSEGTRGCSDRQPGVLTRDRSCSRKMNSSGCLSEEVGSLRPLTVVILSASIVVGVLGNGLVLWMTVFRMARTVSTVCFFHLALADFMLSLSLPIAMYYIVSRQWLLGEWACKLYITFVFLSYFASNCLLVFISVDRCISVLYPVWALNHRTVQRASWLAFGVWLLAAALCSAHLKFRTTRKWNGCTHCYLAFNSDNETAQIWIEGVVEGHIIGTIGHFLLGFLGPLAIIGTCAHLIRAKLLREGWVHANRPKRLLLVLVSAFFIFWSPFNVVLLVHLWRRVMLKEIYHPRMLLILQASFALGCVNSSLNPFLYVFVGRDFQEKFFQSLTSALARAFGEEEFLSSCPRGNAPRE

| Structure (SMILES) | activation |
| --- | --- |
| COc1ccc(NC(=O)c2ccc3c(=O)n4nc(Nc5cc(C)ccc5C)sc4nc3c2)cc1 | inactive: -3.19% |
| COc1ccc(OC)c(NC(=O)Cn2cnc3sc(C)c(S(=O)(=O)N4CCN(c5ccccc5OC)CC4)c3c2=O)c1 | inactive: 1.42% |
| CCOc1ccccc1CNC(=O)C1CCN(C2=NS(=O)(=O)C(c3ccc(C)c(C)c3)=C2C)CC1 | inactive: -5.04% |
| COc1ccc(C(=O)N2CCC(c3nc4ccccc4o3)CC2)cc1 | inactive: 2.43% |
| CCOc1ccc(C(=O)NCCc2csc(-c3ccc(C(F)(F)F)cc3)n2)cc1OCC | inactive: -14.2% |
| COc1ccc(S(=O)(=O)c2c(Nc3ccc(F)cc3)sc(C(=O)c3ccc(C)cc3C)c2N)cc1 | inactive: -28.5% |
| COc1ccc(C(=O)Nc2cc(C(C)C)c(O)c(S(=O)(=O)c3ccc(OC)cc3)c2C)cc1 | inactive: -9.92% |
| c1ccc(Cc2nnc(SCc3nc(-c4cccs4)no3)n2-c2ccccc2)cc1 | inactive: 3.74% |
| Cc1ccccc1N1CCN(S(=O)(=O)c2nnc(NC(=O)c3ccccc3)s2)CC1 | inactive: 43.5% |
| CC(C)c1ccc2oc(-c3cc(NC(=O)c4cccs4)ccc3Cl)nc2c1 | inactive: -3.01% |
| CS(=O)(=O)CCNCc1ccc(-c2ccc3ncnc(Nc4ccc(OCc5cccc(F)c5)c(Cl)c4)c3c2)o1 | inactive: 9.12% |
| COc1cccc(NC(=O)c2sc3nc(C)c(C(=O)Nc4ccc(C)cc4C)c(-c4sccc4C)c3c2N)c1 | inactive: -21.7% |
| O=c1c2oc3ccccc3c2n(Cc2cccc(F)c2)c(=O)n1Cc1ccco1 | inactive: -8.76% |
| Cc1onc(-c2c(Cl)cccc2Cl)c1C(=O)Cl | inactive: 8.71% |
| Cn1cnnc1SCC(=O)Nc1cc(C(=O)O)cc(C(=O)O)c1 | inactive: 0.759% |
| COc1ccc(-c2ccc(CNc3ccc4[nH]c(=O)[nH]c4c3)o2)cc1Cl | inactive: 22% |
| Cc1nn(CC(=O)NC2CCCCC2)c(=O)c2cc3cc(F)ccc3n12 | inactive: 0.621% |
| CCc1ccc(Oc2nc3c(C)cccn3c(=O)c2/C=C(\C#N)c2nc3ccccc3[nH]2)cc1 | inactive: 30% |
| Nc1ccc(-c2nc3ccc(-c4nc5ccc(N)cc5[nH]4)cc3[nH]2)cc1 | inactive: 5.72% |
| Cc1cc(=O)n2[nH]c(NCc3ccc(F)cc3)nc2n1 | inactive: 14% |
| COc1ccc(S(=O)(=O)c2c(Nc3ccc(C)cc3)sc(C(=O)c3ccc(C)cc3)c2N)cc1 | inactive: -28.6% |

| Structure (SMILES) | activation |
| --- | --- |
| Cc1ccc(-n2nc(C)c3c(C)cc(=O)n(CC(=O)Nc4ccc(Br)cc4F)c32)cc1 | inactive: 7.49% |
| Cc1cccc(C(=O)NCC(c2ccc3c(c2)OCO3)N2CCN(c3ccccc3F)CC2)c1 (stereo not drawn) | inactive: -27.7% |
| COc1cc(-c2noc(CSc3nc(-c4ccccc4)cc(=O)[nH]3)n2)cc(OC)c1OC | inactive: -12.9% |
| CCOC(=O)CSc1nc2ccc(NC(=O)c3ccc(F)cc3)cc2s1 | inactive: 40% |
| Cc1ccc(Cl)cc1NC(=O)Nc1c(C)n(C)n(-c2ccccc2)c1=O | inactive: -0.788% |
| O=C(CCCn1c(=O)c2cccn2c2ccc(F)cc21)NCCc1ccccc1 | inactive: -18.9% |
| COc1ccc(-c2noc(-c3ccc(NCc4ccco4)c([N+](=O)[O-])c3)n2)cc1 | inactive: 45.8% |
| Cc1ccc(CSCC(=O)NCc2ccc(F)cc2)cc1 | inactive: -20.1% |
| CCOc1ccccc1Nc1nc(-c2cccc(Cl)c2)c2c(n1)-c1ccccc1OC2 | inactive: -6.1% |
| COc1ccc(NC(=O)Cn2cc(S(=O)(=O)c3ccc(C)cc3)c(=O)c3ccccc32)cc1OC | inactive: -4.56% |
| CCc1nnc(SCC(=O)N(C)c2ccccc2)c2cc3sccc3n12 | inactive: -18.5% |
| CCC(=O)c1ccc(O)cc1 | inactive: 4.59% |
| CCOc1ccc(C(=O)Nc2nnc(SCc3cc(=O)c4cc(C)ccc4[nH]3)s2)cc1 | inactive: 12.1% |
| Cc1nn(-c2ccccc2)c(OC(=O)c2ccccc2F)c1S(=O)(=O)c1ccccc1 | inactive: 14.7% |
| COc1cccc2sc(N(Cc3cccnc3)C(=O)COc3ccccc3)nc12 | inactive: -4.04% |
| Cc1sc2c(c1C)c(=O)n(CCc1ccccc1)c(=O)n2Cc1ccccc1Cl | inactive: 9.94% |
| Cc1ccc(C)c(NC(=O)CSc2nc(=O)n(CCN(C)C)c3c2CCC3)c1 | inactive: -14.8% |
| COc1cc(CN(C(=O)c2ccccc2[N+](=O)[O-])c2ccccn2)cc(OC)c1OC | inactive: 10.7% |
| COc1cccc(N2CCN(C(=O)c3cccc(NC(=O)c4nsc5ccccc45)c3)CC2)c1 | inactive: -14.8% |
| CCN(CC)S(=O)(=O)c1ccc2c(c1)nc(CN(C)C(=O)c1cccc(Cl)c1)n2C | inactive: -6.72% |
| COc1ccc(CCNC(=O)C2=C(C)C(=O)OC23CCCCC3)c(OC)c1OC | inactive: -18.1% |

| Structure (SMILES) | activation |
| --- | --- |
| CC1CCN(S(=O)(=O)c2ccc3c(c2)N(CC(=O)NCCCN2CCCCC2C)C(=O)CS3)CC1 (stereo not drawn) | inactive: -12.6% |
| N#Cc1ccccc1NC(=O)c1cc2c(=O)n3ccccc3nc2s1 | inactive: 6.11% |
| CCn1c(=O)c2cc(C(=O)N3CCN(c4cccc(Cl)c4)CC3)sc2c2ccccc21 | inactive: -3% |
| COc1cc(Cl)c(C)cc1NC(=O)c1cc(CN2CCOCC2)on1 | inactive: -21.2% |
| COc1ccc(OC)c(CNC(=O)C2CCN(S(=O)(=O)c3cn(C)cn3)CC2)c1 | inactive: -11.3% |
| CC1CCCN(Cc2c(O)ccc3c(=O)c(Oc4ccccc4Cl)c(C(F)(F)F)oc23)C1 (stereo not drawn) | inactive: 0.321% |
| Cc1ccc(S(=O)(=O)c2cn(Cc3ccccc3F)c3cc4c(cc3c2=O)OCO4)cc1 | inactive: -7.79% |
| Cc1cc(NC(=O)c2ccc3c(c2)N(Cc2cccc(Cl)c2)C(=O)c2ccccc2S3=O)ccc1Br (stereo not drawn) | inactive: -6.01% |
| CCc1ccccc1NC(=O)Nc1cc(C(=O)NCc2ccc(C(C)C)cc2)ccc1N1CCCC1 | inactive: -22.8% |
| CCc1ccc(NC(=O)CCS(=O)(=O)c2ccc3c(c2)CCN3C(C)=O)cc1 | inactive: -6.81% |
| CCC1CN(S(=O)(=O)c2cc(-c3cc(C)no3)ccc2OC)c2cc(C)ccc2O1 (stereo not drawn) | inactive: -29.5% |
| COc1ccccc1NC(=O)CCn1cnc2ccccc2c1=O | inactive: -10.9% |
| Cc1ccc(Cl)cc1N1CCN(C(=O)C2CCCN(S(=O)(=O)c3ccc(Br)s3)C2)CC1 (stereo not drawn) | inactive: -2.06% |
| CN(C(=O)c1cc2c(=O)oc3ccccc3c2s1)c1ccc(F)cc1 | inactive: -8.31% |
| CCOc1ccc(NC(=O)CSc2nccn2-c2cccc(C)c2C)cc1 | inactive: 22.9% |
| CCOc1ccccc1CNC(=O)c1cc2c(=O)n(Cc3ccccc3)ccc2nc1C | inactive: 0% |
| CC(=O)N1CCCc2cc(S(=O)(=O)N3CCCCC3)ccc21 | inactive: 1.85% |
| Oc1ccc(Cl)c2cccnc12 | inactive: -64.3% |
| Cc1ccc2nc(-c3ccc(Cl)c(NC(=O)c4cccnc4)c3)oc2c1 | inactive: 5.37% |
| CCCCn1c2ccc(F)cc2c2nnc(SCCN3CCCCC3)nc21 | inactive: 2.09% |
| CCOC(=O)C1CCN(S(=O)(=O)c2cc(-c3onc(C)c3C)ccc2OC)CC1 | inactive: -0.554% |

| Structure (SMILES) | activation |
| --- | --- |
| Cc1ccc(OCC(=O)NCC(=O)OCc2cc(=O)n3nc(C)sc3n2)cc1 | inactive: -6.94% |
| O=S(=O)(NCC(c1ccco1)S(=O)(=O)c1cccs1)c1ccc(F)c(C(F)(F)F)c1 (stereo not drawn) | inactive: -11.4% |
| Cc1ccc(CNC(=O)c2nc(SCc3ccc(C)cc3)ncc2Cl)cc1 | inactive: 3.45% |
| COc1ccc(CCNC(=O)CSc2ncc3c(n2)-c2cc(Cl)ccc2N(Cc2ccccc2)S3(=O)=O)cc1OC | inactive: 28.4% |
| COc1ccc(CNC(=O)c2ccc3c(c2)N(Cc2cccc(Cl)c2)C(=O)c2ccccc2S3)c(OC)c1 | inactive: -16.4% |
| CCc1ccccc1NC(=O)Cn1c(=O)c2cccn2c2ccc(F)cc21 | inactive: -17.8% |
| CC(C)c1ccc(NC(=O)CSC2=Nc3ccccc3C3=NC(CC(=O)NCc4ccc(F)cc4)C(=O)N23)cc1 (stereo not drawn) | inactive: 9.42% |
| COCCCNC(=O)CCn1c(=O)c2ccccc2n(CC(=O)Nc2c(C)cc(C)cc2C)c1=O | inactive: 11.2% |
| CC(C)c1ccc(OC(=O)c2cc(-c3ccc4c(c3)OCCO4)on2)cc1 | inactive: -10.2% |
| Cc1cccn2c(Nc3ccccc3)c(-c3ccc(N4CCOCC4)cc3)nc12 | inactive: -32% |
| Cc1ccc(-n2c(=O)c3cccnc3n2CC(=O)Nc2cccc(C)c2C)cc1 | inactive: -13.2% |
| Cc1ccccc1-n1c2nc(=O)[nH]c(=O)c-2cc2c(Cl)cccc21 | inactive: 11.8% |
| CCOC(=O)c1c(C)[nH]c(C)c1S(=O)(=O)N1CCCC(C(=O)Nc2ccc(OC)c(OC)c2)C1 (stereo not drawn) | inactive: -8.03% |
| O=c1cc2nc(-c3ccccc3F)nc(SCc3ccc(Br)cc3)n2[nH]1 | active: 108% |
| Cc1cccc(Cn2c(SCc3ccc(C(=O)NCc4cccs4)cc3)nc3cccnc32)c1 | inactive: -8.34% |
| Cc1ccc(-n2ccnc(NCCc3ccccc3)c2=O)cc1C | inactive: 15.9% |
| COc1ccc(NC(=O)CSc2nnc(-c3nonc3NC(C)=O)n2C)cc1Cl | inactive: 0.487% |
| COCCCN1C(=O)c2[nH]nc(-c3ccccc3O)c2C1c1ccc(OC)cc1 (stereo not drawn) | inactive: -12.5% |
| COC(=O)c1cc(C)nc2c1c(=O)nc(SCc1cccc(C(F)(F)F)c1)n2C1CC1 | inactive: -19.9% |
| COc1ccc(Cl)cc1NC(=O)COC(=O)CC(C)(C)CC1=NS(=O)(=O)c2ccccc2N1 | inactive: 36.7% |
